Tested on: Phytophthora infestans
Type: in vivo
Conditions: 250 ppm, sprayed 2.5 ml/pot before inoculation; evaluated 5-10 days after inoculation

Row | Structure (SMILES) | Test F (control value class, late blight on tomato)
1 | CCn1c(-c2c(F)cc(OC)cc2F)c(-c2cc(F)cc(F)c2Cl)cc(Cl)c1=O [Compound 666] | L (L shows 50% or less of control values)
2 | CCn1c(-c2c(F)cc(OC)cc2F)c(-c2ccccc2Br)ccc1=O [Compound 667] | L (L shows 50% or less of control values)
3 | CCn1c(-c2c(F)cc(OC)cc2F)c(-c2ccccc2Br)cc(Cl)c1=O [Compound 668] | L (L shows 50% or less of control values)
4 | COc1cc(F)c(-c2c(-c3cccc(OC)c3Cl)cc(Br)c(=O)n2C)c(F)c1 [Compound 669] | L (L shows 50% or less of control values)
5 | CCOc1cc(F)c(-c2c(-c3cccc(OC)c3Cl)cc(Br)c(=O)n2C)c(F)c1 [Compound 670] | H (H shows more than 50% of control values)
6 | COc1cccc(-c2cc(C)c(=O)n(C)c2-c2c(F)cc(F)cc2F)c1Cl [Compound 671] | L (L shows 50% or less of control values)
7 | COc1cc(F)c(-c2c(-c3cccc(OC)c3Cl)cc(C)c(=O)n2C)c(F)c1 [Compound 672] | L (L shows 50% or less of control values)
8 | CCOc1cc(F)c(-c2c(-c3cccc(OC)c3Cl)cc(C)c(=O)n2C)c(F)c1 [Compound 673] | L (L shows 50% or less of control values)
9 | CCn1c(-c2c(F)cc(F)cc2F)c(-c2cccc(F)c2C)ccc1=O [Compound 674] | L (L shows 50% or less of control values)
10 | CCn1c(-c2c(F)cc(F)cc2F)c(-c2cccc(F)c2C)cc(Cl)c1=O [Compound 675] | L (L shows 50% or less of control values)
11 | COc1cc(F)c(-c2c(-c3cc(F)cc(F)c3Cl)ccc(=O)n2C)c(F)c1 [Compound 676] | L (L shows 50% or less of control values)
12 | COc1cc(F)c(-c2c(-c3cc(F)cc(F)c3Cl)cc(Cl)c(=O)n2C)c(F)c1 [Compound 677] | L (L shows 50% or less of control values)
13 | COc1cc(F)c(-c2c(-c3cc(F)cc(F)c3Cl)ccc(=O)n2CC(F)F)c(F)c1 [Compound 678] | L (L shows 50% or less of control values)
14 | COc1cc(F)c(-c2c(-c3cc(F)cc(F)c3Cl)cc(Cl)c(=O)n2CC(F)F)c(F)c1 [Compound 679] | L (L shows 50% or less of control values)
15 | Cn1c(-c2c(F)cc(Br)cc2F)c(-c2cc(F)ccc2Cl)ccc1=O [Compound 680] | L (L shows 50% or less of control values)
16 | Cn1c(-c2c(F)cc(Br)cc2F)c(-c2cc(F)ccc2Cl)cc(Cl)c1=O [Compound 681] | L (L shows 50% or less of control values)
17 | CCn1c(-c2c(F)cc(F)cc2F)c(-c2cccc(F)c2C)cc(Br)c1=O [Compound 682] | L (L shows 50% or less of control values)
18 | CCn1c(-c2c(F)cc(F)cc2F)c(-c2ccccc2Cl)cc(Br)c1=O [Compound 683] | L (L shows 50% or less of control values)
19 | CCOc1cc(F)c(-c2c(-c3ccccc3Cl)cc(Cl)c(=O)n2CC)c(F)c1 [Compound 684] | L (L shows 50% or less of control values)
20 | CCOc1cc(F)c(-c2c(-c3ccccc3Cl)ccc(=O)n2CC)c(F)c1 [Compound 685] | L (L shows 50% or less of control values)
21 | CCn1c(-c2c(F)cc(OC)cc2F)c(-c2ccccc2Cl)cc(Br)c1=O [Compound 686] | L (L shows 50% or less of control values)

Row | Structure (SMILES) | Test F (control value class, late blight on tomato)
22 | CCn1c(-c2c(F)cc(F)cc2F)c(-c2ccccc2Cl)cc(C)c1=O [Compound 687] | L (L shows 50% or less of control values)
23 | CCn1c(-c2c(F)cc(F)cc2F)c(-c2cc(F)cc(F)c2Cl)cc(Br)c1=O [Compound 688] | L (L shows 50% or less of control values)
24 | CCn1c(-c2c(F)cc(F)cc2F)c(-c2cc(F)cc(F)c2Cl)cc(C)c1=O [Compound 689] | L (L shows 50% or less of control values)
25 | Cc1cc(F)c(-c2c(-c3cc(F)ccc3Cl)ccc(=O)n2C)c(F)c1 [Compound 690] | L (L shows 50% or less of control values)
26 | Cc1cc(F)c(-c2c(-c3cc(F)ccc3Cl)cc(Cl)c(=O)n2C)c(F)c1 [Compound 691] | L (L shows 50% or less of control values)
27 | CCn1c(-c2c(F)cc(Br)cc2F)c(-c2cc(F)ccc2Cl)ccc1=O [Compound 692] | L (L shows 50% or less of control values)
28 | Cc1cc(-c2cc(F)cc(F)c2Cl)c(-c2c(F)cc(F)cc2F)n(C)c1=O [Compound 694] | L (L shows 50% or less of control values)
29 | CCn1c(-c2c(F)cc(OC)cc2F)c(-c2cc(F)cc(F)c2Cl)cc(Br)c1=O [Compound 695] | L (L shows 50% or less of control values)
30 | CCn1c(-c2c(F)cc(F)cc2F)c(-c2cc(OC)cc(OC)c2Cl)ccc1=O [Compound 696] | L (L shows 50% or less of control values)
31 | CCn1c(-c2c(F)cc(OC)cc2F)c(-c2cccc(F)c2C)ccc1=O [Compound 697] | L (L shows 50% or less of control values)
32 | CCOc1cc(F)c(-c2c(-c3cccc(F)c3C)ccc(=O)n2CC)c(F)c1 [Compound 698] | L (L shows 50% or less of control values)
33 | CCn1c(-c2c(F)cc(OC)cc2F)c(-c2cccc(F)c2C)cc(Cl)c1=O [Compound 699] | L (L shows 50% or less of control values)
34 | CCOc1cc(F)c(-c2c(-c3cccc(F)c3C)cc(Cl)c(=O)n2CC)c(F)c1 [Compound 700] | L (L shows 50% or less of control values)
35 | CCn1c(-c2c(F)cc(OC)cc2F)c(-c2ccccc2Cl)cc(C)c1=O [Compound 701] | L (L shows 50% or less of control values)
36 | CCOc1cc(F)c(-c2c(-c3ccccc3Cl)cc(C)c(=O)n2CC)c(F)c1 [Compound 702] | L (L shows 50% or less of control values)
37 | CCOc1cc(F)c(-c2c(-c3ccccc3Cl)cc(Br)c(=O)n2CC)c(F)c1 [Compound 703] | L (L shows 50% or less of control values)
38 | COc1ccc(Cl)c(C2=C(c3c(F)cccc3F)N(C#N)C(=O)CC2)c1 [Compound 704] | H (H shows more than 50% of control values)
39 | CN1C(=O)CCC(c2ccccc2Cl)=C1c1c(F)cc(F)cc1F [Compound 705] | L (L shows 50% or less of control values)
40 | CCn1c(-c2c(F)cc(Br)cc2F)c(-c2cc(F)ccc2Cl)cc(Cl)c1=O [Compound 706] | L (L shows 50% or less of control values)
41 | CCn1c(-c2c(F)cc(C)cc2F)c(-c2cc(F)ccc2Cl)ccc1=O [Compound 707] | L (L shows 50% or less of control values)
42 | CCn1c(-c2c(F)cc(C)cc2F)c(-c2cc(F)ccc2Cl)cc(Cl)c1=O [Compound 708] | L (L shows 50% or less of control values)
